The text below walks through data of PubChem BioAssay AID602293 (National Center for Advancing Translational Sciences (NCATS), 2012).

About 30 (2%) of roughly 1,300 compounds were called active. About 10% were inconclusive and are not listed. Calls come from the whole dose curve; as a rule, active = well fitted inhibition curve with a large enough effect; inconclusive = small, poorly fitted or top-dose-only effect; inactive = flat fitted curve, though single readings scatter. The list shows a part of the results.
% is set by controls: 0 for no effect and ±100 for the full control effect.

This test can be described thus: qHTS for antagonists of the Thyroid Stimulation Hormone Receptor: Hit Validation in HTRF Activity in a Luteinizing Hormone Receptor Cell Line. To be noted: LHR-expressing cell line, cAMP HTRF, antagonist mode; series mostly up to 58 µM; activity change, negative = inhibition: at the top concentration. In outline: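 Counter-screen on LH receptor–transfected HEK 293 cells: 30 min compound exposure at room temperature in medium containing 100 uM RO 20-1724 phosphodiesterase inhibitor. Cellular cAMP read by competitive HTRF after lysis with d2-cAMP and anti-cAMP antibody (330 nm excitation; 615/660 nm emission).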
For orientation: In qHTS, concentration-response curves come from the screen itself.
With `COc1cc(/C=C2\SC(=O)N(c3ccc(Cl)cc3)C2=O)cc([N+](=O)[O-])c1O`, the “activity change, negative = inhibition” value is inactive: 2.26%. On to `CC(C)CC(=O)NC(NC(=S)Nc1sc2c(c1C#N)CCCC2)C(Cl)(Cl)Cl` (configuration not stated), for which the “activity change, negative = inhibition” value is inactive: -0.217%.

Consider `CC[C@@H](C(=O)[C@@H](C)[C@@H](O)[C@H](C)CCc1ccc(C)c(O)c1C(=O)O)[C@H]1O[C@](CC)([C@H]2CC[C@](O)(CC)[C@H](C)O2)C[C@@H]1C`, for which the “activity change, negative = inhibition” value is inactive: -3.86%. Regarding `CC1(C)C2CCC1(C)C(OC(=O)CCn1ccnc1)C2` (configuration not stated), the “activity change, negative = inhibition” value is inactive: 1.99%. To `Cc1cc2nc(SCCOC(=O)Nc3ccc(Cl)cc3)nc(C)c2cc1C` belongs inactive: 0.935%; to `COc1ccc(CC(=O)Oc2cc(C)ccc2C)cc1`, inactive: -0.764%. `O=S(=O)(c1cccc(Br)c1)N1CCN(CCc2ccccc2)CC1`: the “activity change, negative = inhibition” value is inactive: -0.571%. To `COc1cccc(O)c1CN1CCC(C(=O)Nc2ccc(Oc3cccnc3)cc2)CC1` belongs inactive: -0.849%; to `CCSC1=NSC2=NC(=O)/C(=C\c3coc4ccccc4c3=O)C(=N)N12`, inactive: 0.953%; to `CS(=O)(=O)N(CCc1ccccc1)CC(=O)Nc1ccc(OCc2ccccc2)cc1`, inactive: -3.93%. As for `CCn1c(=S)sc2c(=O)n(CC(=O)Nc3ccccc3OC)c(C)nc21`, the “activity change, negative = inhibition” value is inactive: 0.2%. Turning to `O=C1OC(CC(=O)N(Cc2nnc(-c3ccc(Cl)cc3)o2)C2CC2)c2ccccc21` (configuration not stated), the “activity change, negative = inhibition” value is inactive: -0.702%.

On to `Cc1cccc2sc(NC(=O)C3CCN(S(=O)(=O)c4cc([N+](=O)[O-])ccc4Cl)CC3)nc12`, for which the “activity change, negative = inhibition” value was inactive: -2.89%. For the molecule `O=S(=O)(Nc1cccc(-n2cnnn2)c1)c1ccccc1C(F)(F)F`, the “activity change, negative = inhibition” value is inactive: 3.27%.

Consider `COc1cc(C(=O)N/N=C/c2cn(Cc3ccccc3)c3ccccc23)ccc1O`, for which the “activity change, negative = inhibition” value is inactive: -1.49%. Turning to `Fc1cccc(Cl)c1CNCc1cccnc1`, the “activity change, negative = inhibition” value is inactive: 0.337%. Take `CCOc1cc(/C=C2\SC(=NC)N(C)C2=O)c(Br)cc1OC(C)=O`: the “activity change, negative = inhibition” value is inactive: -1.47%.

`O=[N+]([O-])c1cc(Br)c(O)c(/C=N/Nc2nnnn2-c2cccc3ccccc23)c1`: the “activity change, negative = inhibition” value is inactive: -0.719%. For `O=C(COc1ccc(Cl)cc1)Nc1nc(-c2cccs2)cs1`, the “activity change, negative = inhibition” value was inactive: -1.27%. Take `CCN(CC)C(=O)Cn1c(=O)n(-c2ccccc2)c(=O)c2sccc21`: the “activity change, negative = inhibition” value is inactive: 0.124%. `O=[N+]([O-])c1cccc(S(=O)(=O)Nc2nc3ccccc3nc2Nc2cccc(S(=O)(=O)N3CCCCC3)c2)c1`: the “activity change, negative = inhibition” value was inactive: -1.83%.

For the molecule `COc1ccc(Cc2nc(C(=O)Nc3ccc(Cl)cc3)cs2)cc1`, the “activity change, negative = inhibition” value is inactive: -1.91%.

With `COc1ccc(NC(=O)CCNS(=O)(=O)c2ccc3c(c2)CC(C)N3C(C)=O)cc1` (configuration not stated), the “activity change, negative = inhibition” value is inactive: 1.55%. Consider `S=c1sc2c(Cl)ncnc2n1-c1ccccc1`, for which the “activity change, negative = inhibition” value was inactive: 0.526%. Turning to `COc1ccc(NC(=S)NC(=O)/C=C/c2ccco2)cc1`, the “activity change, negative = inhibition” value was inactive: 0.67%. To `NC(=O)CSc1oc(-c2ccco2)nc1S(=O)(=O)c1ccccc1` belongs inactive: 0.433%. Turning to `COc1ccc(NS(=O)(=O)c2ccc3c(c2)Cc2ccccc2-3)cn1`, the “activity change, negative = inhibition” value was inactive: 1.94%.
